Some of the results follow. One pool of 16,384 single-stranded DNAs met each Rep nickase domain in vitro for 1 h at 37 °C with 3 µM enzyme; only the middle of the 90-letter strands is printed. The score is log2 (uncut reads / reads without enzyme); uncut sequences lie near 0, cut ones below; no hit call is given. Because reads are shares of a total, they shift together; values above 0 arise when much of the pool is cut.
Assays:
Experiment in all cases: uncleaved DNA left, log2 of reads against the no-enzyme library (log2 ratio); higher = less cleavage (more negative = more Rep cleavage of the k-mer); sequences stand for … in CTCGTCCG…ACCGGAGA
[1] = system: T1, Rep nickase domain of Muscovy duck circovirus
T1 sequence (Rep 1-111, printed without the tag): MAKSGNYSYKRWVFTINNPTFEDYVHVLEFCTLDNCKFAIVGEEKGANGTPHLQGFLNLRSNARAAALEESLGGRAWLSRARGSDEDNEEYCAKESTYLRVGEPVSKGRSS
Description: (§1)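 A pool of 90-nt single-stranded DNAs with seven random bases just before the constant AC of the nick site (name = the seven bases) was cut by 3 µM recombinant His6-SUMO-tagged Rep nickase domain (300 nM DNA, 50 mM HEPES pH 8.0, 50 mM NaCl, 1 mM MnCl2, 1 h, 37 °C, three replicates). Uncut DNA was amplified and sequenced.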

[2] = system: T2, Rep nickase domain of banana bunchy top virus
T2 sequence (Rep 1-94, printed without the tag): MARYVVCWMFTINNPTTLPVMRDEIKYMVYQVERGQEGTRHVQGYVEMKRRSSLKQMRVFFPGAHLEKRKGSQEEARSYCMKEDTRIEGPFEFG
Description: as §1

[3] = system: T3, Rep nickase domain of cabbage leaf curl virus
T3 sequence (Rep 1-116, printed without the tag): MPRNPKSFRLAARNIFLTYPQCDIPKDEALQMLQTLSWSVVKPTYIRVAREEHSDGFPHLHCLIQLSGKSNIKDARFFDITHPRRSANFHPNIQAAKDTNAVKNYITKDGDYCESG
Description: as §1

[4] = system: T4, Rep nickase domain of chickpea chlorotic dwarf virus
T4 sequence (Rep 1-124, printed without the tag): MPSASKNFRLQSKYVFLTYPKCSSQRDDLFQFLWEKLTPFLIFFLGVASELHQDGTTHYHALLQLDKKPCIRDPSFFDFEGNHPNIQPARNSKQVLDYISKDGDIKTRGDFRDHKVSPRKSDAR
Description: as §1

[5] = system: T5, Rep nickase domain of faba bean necrotic yellows virus
T5 sequence (Rep 1-98, printed without the tag): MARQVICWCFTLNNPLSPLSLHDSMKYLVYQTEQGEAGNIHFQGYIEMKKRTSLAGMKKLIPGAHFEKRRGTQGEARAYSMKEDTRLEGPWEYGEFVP
Description: as §1

[6] = system: T6, Rep nickase domain of maize striate mosaic virus
T6 sequence (Rep 1-117, printed without the tag): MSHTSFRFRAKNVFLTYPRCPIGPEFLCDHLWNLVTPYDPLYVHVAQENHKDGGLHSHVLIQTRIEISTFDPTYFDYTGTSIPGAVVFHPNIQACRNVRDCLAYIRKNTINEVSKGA
Description: as §1

[7] = system: T7, Rep nickase domain of porcine circovirus 2
T7 sequence (Rep 2-116, printed without the tag): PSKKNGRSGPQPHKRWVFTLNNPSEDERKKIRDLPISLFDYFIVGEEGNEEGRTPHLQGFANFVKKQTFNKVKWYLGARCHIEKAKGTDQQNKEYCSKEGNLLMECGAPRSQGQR
Description: as §1

[8] = system: T8, Rep nickase domain of tomato yellow leaf curl virus
T8 sequence (Rep 1-136, printed without the tag): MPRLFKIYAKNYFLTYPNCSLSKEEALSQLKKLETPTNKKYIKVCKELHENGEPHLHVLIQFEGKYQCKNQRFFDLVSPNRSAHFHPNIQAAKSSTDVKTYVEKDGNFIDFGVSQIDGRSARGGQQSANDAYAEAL
Description: as §1

[9] = system: T9, Rep nickase domain of wheat dwarf virus
T9 sequence (Rep 1-137, printed without the tag): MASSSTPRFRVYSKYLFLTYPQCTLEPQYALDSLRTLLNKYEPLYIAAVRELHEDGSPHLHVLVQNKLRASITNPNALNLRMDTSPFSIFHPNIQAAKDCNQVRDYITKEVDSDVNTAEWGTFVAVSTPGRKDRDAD
Description: as §1

| Sequence | uncleaved DNA left (log2) [1] | uncleaved DNA left (log2) [2] | uncleaved DNA left (log2) [3] | uncleaved DNA left (log2) [4] | uncleaved DNA left (log2) [5] | uncleaved DNA left (log2) [6] | uncleaved DNA left (log2) [7] | uncleaved DNA left (log2) [8] | uncleaved DNA left (log2) [9] |
| --- | --- | --- | --- | --- | --- | --- | --- | --- | --- |
| TCGGGAA | 0.126 | 0.0661 | 0.496 | 1.2 | 0.075 | 1.64 | 0.0123 | -0.214 | 0.0138 |
| TAAGTCG | -0.0745 | -0.0299 | -0.935 | -0.449 | -0.0282 | -1.02 | 0.00331 | -0.107 | -0.16 |
| CGAGAGC | 0.0852 | 0.11 | 0.0307 | 0.352 | 0.154 | -0.302 | 0.136 | 0.0399 | 0.136 |
| GTTCTGG | -0.0308 | -0.114 | 0.304 | 0.83 | -0.191 | 1.28 | 0.00103 | -0.0478 | -0.0171 |
| ACACTCC | -0.0464 | 0.0182 | -0.0404 | 0.476 | 0.109 | 1.01 | 0.143 | -0.104 | 0.0355 |
| TACGGCA | 0.142 | -0.0539 | -0.141 | -0.995 | -0.162 | -0.683 | -0.585 | 0.0241 | -0.0158 |
| TAAGAAT | 0.0505 | 0.0823 | -1.01 | -2.03 | 0.154 | 1.17 | 0.159 | 0.0782 | -0.379 |
| TCCTTAC | -0.161 | -0.205 | -0.129 | -2.34 | -0.104 | -0.683 | -0.089 | -0.203 | -0.191 |
| GAGGGCT | -0.0066 | -0.0317 | 0.768 | 1.35 | -0.074 | 1.9 | 0.142 | -0.0913 | -0.0459 |
| TCTGAAG | 0.0559 | -0.124 | -0.858 | -0.518 | 0.0499 | -1 | 0.156 | 0.01 | -0.122 |
| TGTGCCC | 0.0338 | -0.0596 | 0.341 | 0.515 | 0.0532 | 0.456 | 0.0163 | 0.0846 | 0.0418 |
| GATGTAT | 0.0692 | -0.0426 | 0.252 | 0.638 | 0.0529 | 1.32 | 0.0402 | -0.00513 | 0.128 |
| AGTTAAA | 0.0251 | -0.0413 | 0.0692 | 0.272 | 0.0727 | -0.193 | -0.294 | 0.00807 | 0.173 |
| TGTACGT | 0.0604 | 0.0414 | 0.228 | 0.3 | 0.0553 | 0.262 | -0.161 | 0.107 | 0.0948 |
| ACCACGT | 0.0203 | -0.126 | 0.0143 | -0.36 | -0.0777 | -0.622 | 0.0885 | -0.0471 | -0.0925 |
| GGATTGA | 0.0971 | 0.106 | 0.503 | 1.3 | 0.0587 | 1.46 | 0.207 | 0.0884 | 0.227 |
| CGACGGC | -0.0608 | -0.0329 | 0.0549 | 0.508 | -0.019 | 1.19 | 0.102 | -0.0671 | -0.0262 |
| CTGGCGG | 0.00329 | -0.00335 | 0.601 | 1.33 | -0.0125 | 1.61 | 0.104 | -0.0176 | 0.0937 |
| TGCGGTG | 0.0772 | 0.006 | -0.0378 | 0.388 | 0.0763 | 0.911 | 0.22 | 0.0451 | 0.00629 |
| GACACTA | 0.0361 | -0.0184 | 0.191 | -0.539 | -0.108 | 0.707 | -0.0321 | 0.0564 | 0.153 |

| Sequence | uncleaved DNA left (log2) [1] | uncleaved DNA left (log2) [2] | uncleaved DNA left (log2) [3] | uncleaved DNA left (log2) [4] | uncleaved DNA left (log2) [5] | uncleaved DNA left (log2) [6] | uncleaved DNA left (log2) [7] | uncleaved DNA left (log2) [8] | uncleaved DNA left (log2) [9] |
| --- | --- | --- | --- | --- | --- | --- | --- | --- | --- |
| TAACATC | 0.0727 | 0.0944 | -3.03 | -2.64 | 0.138 | -1.14 | 0.0609 | 0.14 | -0.582 |
| ACACAGT | -0.00779 | 0.04 | -0.446 | -0.719 | -0.00419 | -0.611 | 0.0692 | -0.0719 | -0.137 |
| ACAGGTG | -0.059 | -0.0581 | -0.705 | -0.179 | 0.00976 | -1 | 0.15 | 0.0878 | -0.0636 |
| ATGCGGG | 0.0812 | 0.115 | -0.26 | -0.158 | 0.124 | -0.889 | 0.146 | -0.0373 | 0.0254 |
| AAACGTT | -0.0143 | -0.0717 | -1.53 | -2.39 | -0.0399 | -0.889 | -1.12 | 0.0793 | -0.733 |
| GATAAGG | 0.0349 | 0.133 | 0.246 | 1.09 | -0.0211 | 1.11 | 0.104 | 0.0438 | -0.00331 |
| AACTTAC | -0.0469 | 0.0191 | -0.386 | -2.28 | -0.0149 | -0.877 | -0.314 | -0.00864 | -0.0655 |
| AAGACCT | 0.132 | 0.033 | 0.0899 | -0.453 | -0.028 | 0.694 | -3.46 | 0.0376 | 0.0984 |
| CGGTAGC | -0.0657 | -0.0466 | 0.192 | 0.479 | -0.0594 | 0.0523 | 0.0326 | -0.0346 | -0.0845 |
| GACCCCA | 0.000401 | 0.0556 | 0.706 | 0.815 | -0.0713 | 1.66 | -0.0492 | -0.0015 | 0.148 |
| TGTATTG | -0.086 | -0.0526 | -0.374 | -0.419 | 0.092 | -1.01 | 0.0277 | 0.0584 | -0.111 |
| AACTACA | -0.187 | 0.0272 | -0.381 | -2.93 | 0.146 | -0.639 | -2.34 | 0.173 | 0.0785 |
| CGTGAAA | 0.0399 | 0.12 | 0.191 | 0.468 | 0.071 | 0.352 | 0.0474 | 0.17 | 0.058 |
| GGCCTTA | 0.124 | 0.014 | 0.605 | 1.1 | 0.153 | 1.69 | 0.192 | 0.141 | 0.137 |
| GTGAAGG | -0.0836 | 0.142 | 0.34 | 1.12 | 0.0674 | 1.27 | 0.13 | 0.12 | 0.0929 |
| CAGCTAT | 0.0164 | 0.0541 | 0.109 | -1.43 | -0.0247 | 0.131 | -2.76 | -0.0474 | -0.0811 |
| CGGTTAC | -0.0478 | 0.0263 | 0.128 | -0.326 | -0.00497 | 0.378 | 0.0184 | -0.121 | -0.121 |
| GTAAGTT | 0.0484 | 0.187 | -0.601 | -1.47 | 0.0801 | 1.55 | 0.184 | 0.124 | -0.0278 |
| TTGGAGG | 0.23 | 0.0088 | 0.473 | 1.1 | 0.212 | 1 | 0.146 | 0.0627 | -0.115 |
| GATAGAA | 0.00626 | 0.102 | 0.23 | 0.671 | 0.0613 | 0.742 | 0.0509 | 0.021 | 0.115 |

Source: the supplement of paper PMC7826260
